# Reference: article PMC4336329 (PLoS ONE, 2015)
# The whole screen tested about 310,000 compounds, of which about 14,000 (4.5%) showed an effect of 50% or more. The effect is printed as a negative number. Some of the results follow.
# Target: human ether-à-go-go-related gene (hERG) potassium channel (human, UniProt Q12809)
# Assay: primary screen, population patch clamp on CHO cells stably expressing hERG
# 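Note: peak tail current of the secondary pulse compared with the same well before compound.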
# Chain of human ether-à-go-go-related gene (hERG) potassium channel (Q12809 whole entry, looked up): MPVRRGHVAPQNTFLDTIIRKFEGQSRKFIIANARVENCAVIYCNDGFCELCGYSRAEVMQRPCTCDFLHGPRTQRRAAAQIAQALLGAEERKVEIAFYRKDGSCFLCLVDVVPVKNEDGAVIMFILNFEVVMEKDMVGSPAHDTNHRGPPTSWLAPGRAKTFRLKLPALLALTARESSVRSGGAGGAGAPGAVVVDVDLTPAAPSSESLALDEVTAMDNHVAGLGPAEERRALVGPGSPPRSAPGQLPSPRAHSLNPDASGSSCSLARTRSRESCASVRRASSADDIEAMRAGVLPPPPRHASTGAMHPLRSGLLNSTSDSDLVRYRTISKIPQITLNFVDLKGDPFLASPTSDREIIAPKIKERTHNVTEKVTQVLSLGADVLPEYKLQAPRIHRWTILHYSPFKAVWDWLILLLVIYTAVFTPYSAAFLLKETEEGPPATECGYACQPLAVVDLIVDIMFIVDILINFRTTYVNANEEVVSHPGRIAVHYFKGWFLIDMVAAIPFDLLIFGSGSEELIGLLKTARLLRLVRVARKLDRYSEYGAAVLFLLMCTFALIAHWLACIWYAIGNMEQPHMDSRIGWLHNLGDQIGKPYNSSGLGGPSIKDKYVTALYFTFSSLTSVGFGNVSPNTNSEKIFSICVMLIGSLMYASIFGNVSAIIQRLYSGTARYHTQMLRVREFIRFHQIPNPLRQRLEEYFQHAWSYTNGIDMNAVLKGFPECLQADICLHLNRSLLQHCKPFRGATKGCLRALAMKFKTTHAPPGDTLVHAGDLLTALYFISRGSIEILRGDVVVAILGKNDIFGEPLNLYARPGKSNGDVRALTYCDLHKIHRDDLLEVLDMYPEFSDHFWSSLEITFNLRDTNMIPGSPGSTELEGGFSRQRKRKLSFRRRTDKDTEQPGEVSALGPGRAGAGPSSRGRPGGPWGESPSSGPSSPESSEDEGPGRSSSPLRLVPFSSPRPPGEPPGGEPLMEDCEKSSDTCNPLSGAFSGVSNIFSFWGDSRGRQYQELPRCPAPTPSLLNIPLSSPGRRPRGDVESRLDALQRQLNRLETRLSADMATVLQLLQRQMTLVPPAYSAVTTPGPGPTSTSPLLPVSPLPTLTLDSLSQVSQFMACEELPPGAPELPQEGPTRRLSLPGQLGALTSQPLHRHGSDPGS
row,Compound,"hERG current change (%, negative = inhibition) at 10uM"
1,O=C(O)CC1c2ccccc2C=Cc2ccccc21,10.9%
2,CCC(=O)c1ccc(OCC(=O)OCC(=O)N(C)CC(=O)Nc2ccc(F)cc2)cc1,-18.4%
3,CC(C)(C)S(=O)(=O)c1cnc(-c2ccccn2)nc1N,5.52%
4,N#C[C@]1(S(=O)(=O)c2ccccc2)C[C@@H]2ON=C(c3cccc(Br)c3)[C@@H]2C1,1.79%
5,COc1cc(NS(=O)(=O)c2ccc(Br)cc2)c(OC)cc1NC(=O)c1ccco1,-24.4%
6,CC(=O)OCC1OC(Sc2cccc3cccnc23)C(OC(C)=O)C(OC(C)=O)C1OC(C)=O (centres unmarked),-13.6%
7,O=[N+]([O-])c1ccc(N2CCNCC2)cc1N1CCCCC1,-0.95%
8,COC(=O)c1cccc(NC(=O)c2cccc([N+](=O)[O-])c2)c1,-10.4%
9,CCN(C(=O)CSc1nnc(-c2ccco2)n1CC)c1c(N)n(Cc2ccccc2)c(=O)[nH]c1=O,-0.0315%
10,Cn1c(C(=O)N2CCC(C(N)=O)CC2)cc2cc(Cl)ccc21,-7.5%
11,Cc1nc(-c2c(C(F)(F)F)noc2-c2ccc(O)cc2O)cs1,1.55%
12,O=C(Cc1ccccc1)Nc1ccc(NC(=O)c2ccco2)cc1Cl,-4.4%
13,Clc1ccc(OCCCCN2CCCCC2)cc1.O=C(O)C(=O)O,-65.5%
14,CCn1c(CNc2ccc(F)cc2)nnc1SCC#N,7.71%
15,COc1cc(C2/C(=C(\O)c3ccc4c(c3)CC(C)O4)C(=O)C(=O)N2CCN2CCOCC2)cc(OC)c1OC (centres unmarked),-3.37%
16,COc1ccccc1OCC(O)CN1C(=O)NC(C)(C)C1=O (centres unmarked),20.7%
17,O=C1CCC(O)CCN1CCSc1ccccc1 (centres unmarked),6.72%
18,O=C(Cc1cn2ccsc2n1)Nc1ccccc1Oc1ccccc1,-27.4%
19,Cc1ccc(C(=S)NCS(=O)(=O)c2ccc(C)cc2)cc1,6.25%

row,Compound,"hERG current change (%, negative = inhibition) at 10uM"
1,Cn1c(CNc2ccc(Cl)cc2)nnc1SCc1ccccc1,10.2%
2,COc1ccc2nc(C)cc(Nc3ccc(C)cc3)c2c1.Cl,-52.8%
3,COc1ccc(-c2csc(NC(=O)c3ccc(S(=O)(=O)N4CCc5ccccc5C4)cc3)n2)cc1,5.11%
4,CC1CCN(c2ccc(S(=O)(=O)NC3=NCCCCC3)cc2[N+](=O)[O-])CC1,-11.2%
5,CC1(C)Cc2c(sc(NC(=O)C(=O)N3CCCC3)c2C#N)CO1,20.2%
6,CC(C)(C)C(=O)N1CCC[C@H]1C(O)(c1ccccc1)c1ccccc1,-28.5%
7,CCCn1c(N)c(C(=O)CSc2nc3ncc(Cl)cc3[nH]2)c(=O)n(C)c1=O,10.3%
8,CN(C)c1ccc(C(=O)OCC(=O)NCC2CCCO2)cc1 (centres unmarked),-4.33%
9,O=C(CN1CCN(c2ccccn2)CC1)Nc1nc2ccccc2s1,-47.7%
10,CCCN1CNC(=S)N(c2ccccc2OCC)C1,5.61%
11,CC(=O)Oc1ccc2c(=O)c(Oc3ccccc3[N+](=O)[O-])coc2c1,15.4%
12,O=c1[nH]c2cc(C(F)(F)F)ccc2n1-c1cc(C(F)(F)F)ccc1O,3.63%
13,CC(C)N(CCc1ccncc1)C(=S)Nc1cccc(Cl)c1,-71.3%
14,COc1ccc(CSc2nc(C)cc(C)c2C#N)cc1,26.6%
15,COc1ccc(C(OC(=O)c2ccco2)C(=O)NC(C)(C)C)cc1 (centres unmarked),72.2%
16,Cc1cccc(C(CC(=O)N2CCCCC2)c2ccccc2)c1O (centres unmarked),-34.2%
17,c1ccc(Oc2ccc3ccccc3n2)cc1,-14.7%
18,COc1ccc(-c2csc(/N=C/N(C)C)n2)cc1OC,16.1%
19,COc1ccc(-n2nc3c(c2NC(=O)c2ccc(S(=O)(=O)N4CCOCC4)cc2)CS(=O)C3)cc1 (centres unmarked),8.18%

row,Compound,"hERG current change (%, negative = inhibition) at 10uM"
1,CCCn1c(C2CC(=O)N(c3ccc(C)cc3)C2)nc2ccccc21 (centres unmarked),-52.9%
2,Cc1cc(C(=O)COC(=O)c2ccc(O)cc2)c(C)n1-c1ccccc1F,14.6%
3,CC(C)c1ccc(NC(=S)NC2CCN(Cc3ccccc3)CC2)cc1,-17.4%
4,COCCNc1nc2sc3c(c2c(=O)n1Cc1ccco1)CCCCC3,16.4%
5,O=C(COC(=O)CCN1C(=O)C2CC=CCC2C1=O)Nc1ccc(Cl)cc1F (centres unmarked),-31.9%
6,CN(c1ccccc1)S(=O)(=O)c1cccc(C(=O)OCC(=O)Nc2ccc3[nH]c(=O)[nH]c3c2)c1,19.6%
7,COc1ccc(OCCCC(=O)NC(C)c2ccccc2)cc1 (centres unmarked),8.04%
8,Cc1n[nH]c(C)c1N1C(=O)c2cccc3cc(Br)cc(c23)C1=O,11.7%
9,CC(C)NNC(=O)c1ccncc1.O=P(O)(O)O,20.4%
10,Br.CC(C)(C)C(=O)CN1C2=NCCCN2c2ccccc21,-75.8%
11,O=C(Oc1ccc([N+](=O)[O-])cc1)c1ccc(Cl)c(S(=O)(=O)N2CCCCC2)c1,18.5%
12,CN(Cc1nc2ccccc2c(=O)[nH]1)c1ccccc1,4.03%
13,Cc1ccc(N(C(=O)CNC(=O)c2ccco2)C(C(=O)NC2CCCCC2)c2cccnc2)cc1C (centres unmarked),15%
14,CCc1ccc(OCC(=O)N/N=C(\C)c2ccccc2OC(F)F)cc1,14.1%
15,CCN(CC(=O)Nc1ccc(NC(C)=O)cc1)C(=O)/C=C/c1ccc([N+](=O)[O-])cc1,-44.9%
16,CCOC(=O)CNc1nc(Cl)nc(NC(C)(C)C)n1,18.7%
17,COc1ccc(S(=O)(=O)Nc2nnc(CC(C)(C)C)s2)cc1,9.63%
18,CCn1nccc1C(=O)Nc1ccc(S(=O)(=O)NC23CC4CC(CC(C4)C2)C3)cc1,-4.84%
